# The supplement of paper PMC3334620
# Over roughly 33,000 sequences, “E-score (-0.5 to 0.5)” has its median near -0.035; the highest 2% begin near 0.35. This is one part of the list.
# Molecular target: T1, Pdr3 (UniProt P33200)
# T1 sequence: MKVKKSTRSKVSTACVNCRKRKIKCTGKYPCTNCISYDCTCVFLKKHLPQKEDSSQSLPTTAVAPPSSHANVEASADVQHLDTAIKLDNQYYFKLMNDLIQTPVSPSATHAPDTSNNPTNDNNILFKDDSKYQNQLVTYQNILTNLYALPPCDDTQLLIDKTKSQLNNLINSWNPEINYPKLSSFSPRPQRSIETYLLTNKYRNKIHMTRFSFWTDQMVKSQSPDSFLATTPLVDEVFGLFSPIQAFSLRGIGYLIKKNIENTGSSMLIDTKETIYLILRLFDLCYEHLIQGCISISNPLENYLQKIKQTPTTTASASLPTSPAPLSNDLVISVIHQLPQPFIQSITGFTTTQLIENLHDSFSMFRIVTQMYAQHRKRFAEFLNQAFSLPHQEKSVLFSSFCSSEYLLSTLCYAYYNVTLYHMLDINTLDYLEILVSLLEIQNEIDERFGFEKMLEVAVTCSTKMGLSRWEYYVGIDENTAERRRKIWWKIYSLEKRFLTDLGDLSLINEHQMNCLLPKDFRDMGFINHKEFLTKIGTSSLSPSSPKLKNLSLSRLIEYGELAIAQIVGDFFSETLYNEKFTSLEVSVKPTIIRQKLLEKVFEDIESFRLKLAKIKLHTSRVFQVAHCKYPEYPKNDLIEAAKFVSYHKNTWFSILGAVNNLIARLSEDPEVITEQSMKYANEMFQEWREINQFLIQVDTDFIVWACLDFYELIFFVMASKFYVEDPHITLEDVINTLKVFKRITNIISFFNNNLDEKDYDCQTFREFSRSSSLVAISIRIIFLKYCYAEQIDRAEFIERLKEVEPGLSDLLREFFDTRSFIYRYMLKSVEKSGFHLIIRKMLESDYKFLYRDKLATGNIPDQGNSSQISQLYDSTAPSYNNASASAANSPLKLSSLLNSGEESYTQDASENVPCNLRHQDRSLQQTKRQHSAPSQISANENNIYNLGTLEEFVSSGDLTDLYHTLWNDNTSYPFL
# Assay: PBM E-score (8-mer binding enrichment) (E-score (-0.5 to 0.5)); higher = stronger / more preferred TF binding; most listed sequences are background and not binding sites
# Settings: protein concentration: 200 nM; construct: GST-full length
# Description: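 Universal 'all 10-mer' protein binding microarrays (Agilent AMADID 015681) probed with GST-tagged S. cerevisiae TFs (full-length or DBD) made by in vitro transcription/translation (PURExpress), about 100-200 nM. Bound TF was detected with fluorescent anti-GST. Each ungapped 8-mer (which stands for itself and its reverse complement) is scored by the PBM enrichment score (E-score), a modified Wilcoxon-Mann-Whitney statistic from -0.5 to +0.5, computed with the Universal PBM Analysis Suite. Scale: above 0.35 generally sequence-specific binding.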
row,Sequence,PBM E-score
1,ACTTGCTA,-0.163
2,CATTAAGA,-0.303
3,AGCAGCCC,-0.0573
4,ACATAAAG,-0.124
5,GGGCTCTA,-0.0512
6,TATGCAGA,-0.0675
7,ACGAATCT,-0.138
8,GCCACAAA,-0.0524
9,CAGACCGA,0.0747
10,CTTGATCA,0.0126
11,CGATTCAA,-0.112
12,GCTCTGAA,-0.126
13,ATCCGGGA,0.313
14,AGTGTCCG,0.235
15,ATAGTCAC,-0.0342
16,AGGATATC,-0.0388
17,AAGGTCCC,-0.0527
18,ACGGTAAC,0.224
19,ACCAGGTC,-0.0207
20,AGACGAAC,-0.0242
21,CTCTACAC,-0.15
22,CATGTGGA,-0.0419
23,ATCACACC,0.085
24,GGGCTCAC,-0.17

row,Sequence,PBM E-score
1,AGGGTAAC,-0.14
2,CGATGAGA,0.087
3,ATTAAATA,0.213
4,ATACAGGC,-0.0916
5,CCTGCAAC,-0.25
6,ATTATCAG,-0.0591
7,AGATGTAC,-0.285
8,ACCAAGGC,-0.129
9,CGCAAACG,0.0652
10,CAAACCGG,0.269
11,CGGCGCTA,0.0673
12,GCAGATGA,-0.0783
13,CCTATGTA,-0.16
14,AGCAGGTA,-0.184
15,GTATAGAC,-0.18
16,AATTCTAT,-0.193
17,CCTTTGCG,0.042
18,ACTGAATC,-0.185
19,GAGTCGTA,-0.107
20,GGCCCGTA,0.0625
21,GTTGTGTA,-0.142
22,AGCCCTGA,-0.207
23,AGGAATCA,-0.0475
24,AGTACTGC,-0.11

row,Sequence,PBM E-score
1,ATGTGCTG,0.134
2,GTCTGTGA,0.00905
3,CCAATCAC,-0.0311
4,TCTAACAA,-0.202
5,TCCCGGCA,0.323
6,CAAGAAAG,-0.0792
7,CCACCCCC,-0.0954
8,CTTGTATA,-0.126
9,AGGAACCA,-0.0282
10,CCGTACGA,0.00505
11,CCGGCCGC,0.317
12,CCCACGTA,-0.193
13,AGTCATGC,-0.144
14,CAGGACAA,0.116
15,GAAAATCA,0.00597
16,ACAGTGTC,-0.208
17,TGTCAAAA,-0.102
18,AATTGTAT,0.12
19,ATTTTGGA,0.0645
20,CACTTCCC,0.0703
21,AAAAAAGG,0.204
22,CTGAAATC,0.0707
23,CTCTAGGA,-0.339
24,CTTCACCA,-0.153

row,Sequence,PBM E-score
1,ACACTCAG,-0.14
2,AGGAAATA,0.121
3,TGGGGCAA,-0.269
4,AGGAATAC,-0.2
5,CGGGTATC,0.196
6,GCGGTCGA,0.17
7,ATACACAG,-0.0459
8,GGGTTATA,-0.131
9,CATAAAGC,-0.27
10,CGCCAGAA,0.0188
11,CATTCCAA,-0.102
12,TTAGGAAA,-0.217
13,CTAGAAGA,-0.097
14,AAGCTCCA,-0.114
15,ACCGGCCC,0.0099
16,GATCCGGA,0.437
17,ATAGCATC,-0.101
18,AATTTCGC,0.124
19,ATACGGCG,0.166
20,ATATTTAG,0.0523
21,CCCTTGCA,-0.185
22,GGAGACGA,0.212
